Reference: the supplement of paper PMC12217912
This is one part of the list. The full chains were built here from the parent and the listed change. Inactive controls read about 0.05.

B1: TEV protease; numbered along this chain (parent)
chain: MGESLFKGPRDYNPISSSICHLTNESDGHTTSLYGIGFGPFIITNKHLFRRNNGTLVVQSLHGVFKVKDTTTLQQHLVDGRDMIIIRMPKDFPPFPQKLKFREPQREERICLVTTNFQTKSMSSMVSDTSCTFPSGDGIFWKHWIQTKDGQCGSPLVSTRDGFIVGIHSASNFTNTNNYFTSVPKNFMELLTNQEAQQWVSGWRLNADSVLWGGHKVFMVKPEEPFQPVKEATQL

Variants of: B1
Assay: raw area under fraction-flipped curve 0-4 h after induction (AUC4h, not background-subtracted), DNA-recorder readout of cleavage of the substrate (dimensionless); higher = more cleavage of the substrate by the protease variant
Conditions: temperature: 34 °C; time window: 0-4 h after rhamnose induction
Description: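 In vivo DNA recorder in E. coli TOP10(DE3) ΔrhaA at 34 °C. Each TEVp single-site mutant (parent TEVp 0) is paired with a single-site variant of the 7-mer TEVs (canonical ENLYFQ|S). The substrate sits between flexible linkers in a Bxb1-sfGFP-TEVs-SsrA fusion, so cleavage stabilises Bxb1 and speeds flipping of a recombination array, read by NGS. The value is the raw area under the fraction-flipped curve over 0-4 h after rhamnose induction (AUC4h), with ≥20 reads per time point. It is not background-subtracted; inactive controls average about 0.047.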
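Further: Bxb1 expression induced with 0.2% (w/v) L-rhamnose at OD600 near 0.5, cultures sampled hourly, flipped fraction per protease–substrate barcode pair counted by paired-end Illumina sequencing.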

Row | Variant | area with substrate ENLYFQC | area with substrate ENLYFQH | area with substrate ENLYFQL | area with substrate ENLYFQP | area with substrate ENLYFQR | area with substrate ENLYFQS | area with substrate ENLYFQW | area with substrate ENLYFQY | area with substrate ENLYFQD | area with substrate ENLYFQG | area with substrate ENLYFQM | area with substrate ENLYFQN | area with substrate ENLYFQQ | area with substrate ENLYFQI | area with substrate ENLYFQK | area with substrate ENLYFQT | area with substrate ENLYFQE | area with substrate ENLYFQF | area with substrate ENLYFQV
1 | MGESLFKGPRDYNPISSSICHLTNESDGHTTSLYGIGFGPFIITNKHLFRRNNGTLVVQSLHGVFKVKDTTTLQQHLVDGRDMIIIRMPKDFPAFPQKLKFREPQREERICLVTTNFQTKSMSSMVSDTSCTFPSGDGIFWKHWIQTKDGQCGSPLVSTRDGFIVGIHSASNFTNTNNYFTSVPKNFMELLTNQEAQQWVSGWRLNADSVLWGGHKVFMVKPEEPFQPVKEATQL [P94A] | 0.0983 | 0.0737 | 0.0588 | 0.0612 | 0.0431 | 0.104 | 0.0628 | 0.0748 | – | – | – | – | – | – | – | – | – | – | –
2 | MGESLFKGPRDYNPISSSICHLTNESDGHTTSLYGIGFGPFIITNKHLFRRNNGTLVVQSLHGVFKVKDTTTLQQHLVDGRDMIIIRMPKDFPPAPQKLKFREPQREERICLVTTNFQTKSMSSMVSDTSCTFPSGDGIFWKHWIQTKDGQCGSPLVSTRDGFIVGIHSASNFTNTNNYFTSVPKNFMELLTNQEAQQWVSGWRLNADSVLWGGHKVFMVKPEEPFQPVKEATQL [F95A] | 0.121 | 0.0816 | – | – | 0.0471 | 0.085 | 0.0526 | 0.0717 | 0.058 | 0.0839 | 0.077 | 0.0645 | 0.0702 | – | – | – | – | – | –
3 | MGESLFKGPRDYNPISSSICHLTNESDGHTTSLYGIGFGPFIITNKHLFRRNNGTLVVQSLHGVFKVKDTTTLQQHLVDGRDMIIIRMPKDFPPFPAKLKFREPQREERICLVTTNFQTKSMSSMVSDTSCTFPSGDGIFWKHWIQTKDGQCGSPLVSTRDGFIVGIHSASNFTNTNNYFTSVPKNFMELLTNQEAQQWVSGWRLNADSVLWGGHKVFMVKPEEPFQPVKEATQL [Q97A] | 0.0931 | – | 0.0748 | 0.0586 | 0.0596 | 0.105 | – | 0.0934 | – | 0.0873 | – | – | – | 0.0581 | 0.0685 | – | – | – | –
4 | MGESLFKGPRDYNPISSSICHLTNESDGHTTSLYGIGFGPFIITNKHLFRRNNGTLVVQSLHGVFKVKDTTTLQQHLVDGRDMIIIRMPKDFPPFPQFLKFREPQREERICLVTTNFQTKSMSSMVSDTSCTFPSGDGIFWKHWIQTKDGQCGSPLVSTRDGFIVGIHSASNFTNTNNYFTSVPKNFMELLTNQEAQQWVSGWRLNADSVLWGGHKVFMVKPEEPFQPVKEATQL [K98F] | 0.128 | 0.0853 | 0.0536 | – | 0.0659 | 0.0972 | 0.0784 | 0.0709 | – | 0.0906 | – | 0.0735 | – | – | 0.0796 | 0.0629 | – | – | –
5 | MGESLFKGPRDYNPISSSICHLTNESDGHTTSLYGIGFGPFIITNKHLFRRNNGTLVVQSLHGVFKVKDTTTLQQHLVDGRDMIIIRMPKDFPPFPQKRKFREPQREERICLVTTNFQTKSMSSMVSDTSCTFPSGDGIFWKHWIQTKDGQCGSPLVSTRDGFIVGIHSASNFTNTNNYFTSVPKNFMELLTNQEAQQWVSGWRLNADSVLWGGHKVFMVKPEEPFQPVKEATQL [L99R] | 0.0957 | 0.0514 | 0.0838 | – | 0.0693 | 0.0881 | 0.0479 | 0.0778 | – | 0.0929 | 0.0646 | 0.0894 | 0.0859 | 0.0596 | 0.068 | 0.0737 | 0.079 | 0.0603 | 0.0594
6 | MGESLFKGPRDYNPISSSICHLTNESDGHTTSLYGIGFGPFIITNKHLFRRNNGTLVVQSLHGVFKVKDTTTLQQHLVDGRDMIIIRMPKDFPPFPQKYKFREPQREERICLVTTNFQTKSMSSMVSDTSCTFPSGDGIFWKHWIQTKDGQCGSPLVSTRDGFIVGIHSASNFTNTNNYFTSVPKNFMELLTNQEAQQWVSGWRLNADSVLWGGHKVFMVKPEEPFQPVKEATQL [L99Y] | 0.093 | 0.0466 | 0.0427 | – | 0.0603 | 0.0787 | 0.0567 | 0.0656 | 0.0639 | 0.0737 | 0.0714 | – | – | 0.0566 | 0.0591 | 0.0577 | – | 0.0541 | –
7 | MGESLFKGPRDYNPISSSICHLTNESDGHTTSLYGIGFGPFIITNKHLFRRNNGTLVVQSLHGVFKVKDTTTLQQHLVDGRDMIIIRMPKDFPPFPQKLGFREPQREERICLVTTNFQTKSMSSMVSDTSCTFPSGDGIFWKHWIQTKDGQCGSPLVSTRDGFIVGIHSASNFTNTNNYFTSVPKNFMELLTNQEAQQWVSGWRLNADSVLWGGHKVFMVKPEEPFQPVKEATQL [K100G] | 0.101 | 0.0792 | 0.063 | 0.0717 | 0.0521 | 0.0961 | 0.0662 | 0.0708 | – | – | 0.0849 | 0.0516 | 0.0734 | 0.0589 | 0.0659 | 0.0696 | 0.0447 | – | –
8 | MGESLFKGPRDYNPISSSICHLTNESDGHTTSLYGIGFGPFIITNKHLFRRNNGTLVVQSLHGVFKVKDTTTLQQHLVDGRDMIIIRMPKDFPPFPQKLKFREPQEEERICLVTTNFQTKSMSSMVSDTSCTFPSGDGIFWKHWIQTKDGQCGSPLVSTRDGFIVGIHSASNFTNTNNYFTSVPKNFMELLTNQEAQQWVSGWRLNADSVLWGGHKVFMVKPEEPFQPVKEATQL [R106E] | 0.0919 | 0.0906 | – | – | 0.0564 | 0.118 | 0.0778 | – | 0.0839 | 0.119 | – | – | – | 0.057 | 0.0687 | 0.066 | – | 0.0537 | –
9 | MGESLFKGPRDYNPISSSICHLTNESDGHTTSLYGIGFGPFIITNKHLFRRNNGTLVVQSLHGVFKVKDTTTLQQHLVDGRDMIIIRMPKDFPPFPQKLKFREPQRLERICLVTTNFQTKSMSSMVSDTSCTFPSGDGIFWKHWIQTKDGQCGSPLVSTRDGFIVGIHSASNFTNTNNYFTSVPKNFMELLTNQEAQQWVSGWRLNADSVLWGGHKVFMVKPEEPFQPVKEATQL [E107L] | 0.109 | – | – | – | 0.0845 | 0.0951 | – | 0.0684 | 0.0578 | – | 0.0721 | 0.0838 | – | – | 0.0625 | 0.0484 | – | – | –
